According to PMC4336329 (PLoS ONE, 2015):
Hit rate of the full screen: of about 310,000 compounds, about 2,200 (0.71%) showed an effect of 50% or more. Effects have a minus sign here. The list shows a part of the results.

What follows are molecules tested against human ether-à-go-go-related gene (hERG) potassium channel (human, UniProt Q12809) (assay: primary screen, population patch clamp on CHO cells stably expressing hERG).
Chain of human ether-à-go-go-related gene (hERG) potassium channel (Q12809 whole entry, looked up): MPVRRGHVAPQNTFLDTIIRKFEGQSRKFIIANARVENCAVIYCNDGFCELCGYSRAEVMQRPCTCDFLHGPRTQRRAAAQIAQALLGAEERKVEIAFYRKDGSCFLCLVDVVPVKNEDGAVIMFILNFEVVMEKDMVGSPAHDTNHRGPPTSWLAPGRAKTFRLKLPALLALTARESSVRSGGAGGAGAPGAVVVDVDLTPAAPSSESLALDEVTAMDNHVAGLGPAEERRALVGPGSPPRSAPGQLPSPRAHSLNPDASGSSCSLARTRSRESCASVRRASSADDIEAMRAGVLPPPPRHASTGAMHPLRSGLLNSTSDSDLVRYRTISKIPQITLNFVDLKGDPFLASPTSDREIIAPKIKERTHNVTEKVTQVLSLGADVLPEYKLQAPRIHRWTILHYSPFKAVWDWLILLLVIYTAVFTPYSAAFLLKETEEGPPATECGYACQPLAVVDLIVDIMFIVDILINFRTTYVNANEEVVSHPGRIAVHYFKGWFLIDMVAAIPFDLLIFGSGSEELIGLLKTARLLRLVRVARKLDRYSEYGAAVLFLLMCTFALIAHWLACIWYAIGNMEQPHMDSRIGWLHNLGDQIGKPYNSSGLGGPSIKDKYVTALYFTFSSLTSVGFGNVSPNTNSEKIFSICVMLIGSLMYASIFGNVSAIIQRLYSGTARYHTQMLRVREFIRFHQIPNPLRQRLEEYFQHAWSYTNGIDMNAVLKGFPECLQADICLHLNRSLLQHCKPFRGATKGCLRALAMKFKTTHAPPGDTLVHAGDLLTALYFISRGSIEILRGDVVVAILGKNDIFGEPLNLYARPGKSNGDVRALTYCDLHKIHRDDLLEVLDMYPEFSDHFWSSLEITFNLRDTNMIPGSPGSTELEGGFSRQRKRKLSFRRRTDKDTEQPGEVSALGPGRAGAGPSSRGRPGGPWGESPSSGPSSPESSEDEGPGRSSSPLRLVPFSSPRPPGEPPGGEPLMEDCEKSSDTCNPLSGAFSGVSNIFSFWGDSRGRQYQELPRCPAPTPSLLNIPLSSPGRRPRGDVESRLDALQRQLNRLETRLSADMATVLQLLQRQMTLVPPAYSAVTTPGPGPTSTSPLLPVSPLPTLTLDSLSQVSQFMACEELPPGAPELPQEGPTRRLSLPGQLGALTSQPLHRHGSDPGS

| SMILES | hERG current change (%, negative = inhibition) at 1uM |
| --- | --- |
| COc1ccc(-c2cc(CCCC(=O)NCCc3cc(OC)ccc3OC)no2)cc1 | 6.62% |
| O=C(c1cc2ncc(Br)cn2n1)N1CCOCC1 | 13.2% |
| O=C(C[n+]1cccc(NC(=O)c2ccccc2)c1)c1cccc([N+](=O)[O-])c1.[Br-] | -39.6% |
| CCOC(=O)N1CCC(N2C(=O)c3ccc(C(=O)Nc4cccc(OC)c4)cc3C2=O)CC1 | 9.99% |
| Cc1ccc(-c2nnc(-c3ccccc3Br)o2)cc1 | 3.17% |
| Cc1ccc2nc(C)cc(N/N=C/c3cccnc3)c2c1 | 2.91% |
| Cc1ccccc1CSc1n[nH]c(NS(=O)(=O)c2ccccc2)n1 | 10.4% |
| COc1ccc(O)c(CN2CCN(CCc3ccccc3)C(CCO)C2)c1 (centres unmarked) | -1.29% |
| CCOc1ccc(S(=O)(=O)N(CC)CC(=O)N2CCOCC2)cc1C | 15.9% |
| COc1ccc(N(C)S(=O)(=O)c2cccc(C(=O)NC3CCCC(C)C3C)c2)cc1 (centres unmarked) | -4.13% |
| COc1ccc(NC(=O)c2cc(-c3ccc(C)cc3)on2)cc1OC | 14.5% |
| CN(C)c1cc[n+](CC(=O)c2cccs2)cc1.[Cl-] | 10% |
| CCCn1c(Sc2nc3c(c(=O)[nH]c(=O)n3C)n2CCC)nc2c1c(=O)[nH]c(=O)n2C | 15% |
| Cc1ccc(S(=O)(=O)N2CCN(C(=O)COC(=O)CCCOc3ccccc3)CC2)c(C)c1 | 5.27% |
| COc1ccc(NS(=O)(=O)c2cccc(C(=O)NCC3(N(C)C)CCCCC3)c2)cc1 | 2.4% |
| COc1ccccc1N(C)S(=O)(=O)c1ccc(C)c(C(=O)NCc2ccccn2)c1 | 6.92% |
| O=[N+]([O-])c1ccc(Cl)cc1Sc1cccc2cccnc12 | 14.1% |
| c1cc2c3c(cccc3c1)NC1(CCC3(CC1)Nc1cccc4cccc(c14)N3)N2 | 13.7% |
| COc1ccc(NC(=O)Nc2nc3c(s2)CCCC3)cc1 | -0.507% |
| O=C(COC(=O)c1ccc(F)cc1F)NC1CC1 | 22.9% |
| COCCCn1c(-c2ccco2)nc2ccccc2c1=O | 0.404% |
| Cc1cc(C)cc(N2C(=O)NC(=O)/C(=C\c3cccn3-c3ccccc3)C2=O)c1 | -0.0202% |

| SMILES | hERG current change (%, negative = inhibition) at 1uM |
| --- | --- |
| CC(C)NC(=S)NN=C1CCC(c2ccccc2)CC1 (centres unmarked) | 11.9% |
| O=c1c2c(nc3c(-c4ccc(Cl)cc4)c[nH]n13)CCCC2 | -10.5% |
| CCOC(=O)c1c(C)oc2ccc(OS(C)(=O)=O)cc12 | 9.28% |
| Cc1ccc(CONC(=O)c2cccc([N+](=O)[O-])c2)cc1 | -0.0368% |
| Cc1ccc(N2CC(C(=O)Nc3nnc(SCC(=O)NCC4CCCO4)s3)CC2=O)cc1C (centres unmarked) | 7.64% |
| O=C(Nc1cccc([N+](=O)[O-])c1)Nc1ccc(Cl)cn1 | 9.25% |
| CCNC(=S)Nc1cc(OC)c(NC(=O)c2ccco2)cc1OC | 13.5% |
| O=C1N(Cc2cccc(Cl)c2)C[C@@H]2C[C@@H](c3ccccn3)N3CCC[C@@]123 | 7.23% |
| Cc1ccc(C)c(OCC(=O)NNC(=O)c2ccc(=O)[nH]c2)c1 | 11.4% |
| Cc1[nH]c2ccc(F)cc2c1CCN(Cc1ccco1)C(=S)NC(C)(C)C | 15.8% |
| S=C(NCCc1ccccc1)N1CCn2cccc2C1c1ccncc1 (centres unmarked) | 2.69% |
| CC(Sc1nnc(Nc2ccccc2)s1)C(=O)Nc1nc(-c2ccccc2)cs1 (centres unmarked) | 6.77% |
| COc1ccc(C(=O)C2CCN(CC(=O)Nc3ccc(OC)cc3OC)CC2)cc1 | -7.33% |
| COc1ccc(NC(=O)CN(C)CC(=O)NC(=O)NC2CCCCC2)cc1 | 5.98% |
| Cc1ccccc1N(CC(=O)NCCc1ccccc1)C(=O)c1ccc(N2CCCC2)nc1 | 8.49% |
| COc1cccc(OCc2nn[nH]n2)c1 | 16.5% |
| CN(C)CCn1c2c(c(SCC(=O)Nc3cccc(C(F)(F)F)c3)nc1=O)CCCC2 | -36.8% |
| COC(=O)c1nnn(CC(=O)NC(=O)Nc2cccc(Cl)c2C)c1C(=O)OC | 12.7% |
| O=C(Cc1cc(=O)oc2cc(O)ccc12)NC(Cc1ccc(Cl)cc1)C(=O)O (centres unmarked) | 17.3% |
| CCCC(=O)N/N=C1\CS(=O)(=O)N(C)c2ccsc21 | 8.79% |
| CCOC(=O)c1oc2ccc(S(=O)(=O)N3CCC(C)CC3)cc2c1C | 7.49% |
| COc1cc(OC)cc(C(=O)N2CCN(C(=O)COc3ccc4ccccc4c3)CC2)c1 | -4.51% |
